# Results as given in PubChem BioAssay AID1347073 (National Center for Advancing Translational Sciences (NCATS), 2019).
# About 200 (0.44%) of roughly 45,000 compounds were called active. Not shown: some 7% with an inconclusive outcome. The call rests on the fitted dose curve; in most records, active means well fitted activation curve with a large enough effect; inconclusive means small, poorly fitted or top-dose-only effect; inactive means no such curve, though single readings can be large or run the other way. Some of the results follow.
# Test: qHTS of TDP-43 Inhibitors: NCGC Sytravon Library Screen; further: nearly all actives have a fitted effect of over 55% in size; on growth rescue (activation): 0% is about no effect
# Conditions: yeast TDP-43 toxicity rescue, BacTiter-Glo growth, 24 h; series mostly up to 46.1 µM; growth rescue (activation): at the top concentration
# Summary of the method: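 TDP-43-expressing yeast, pregrown in raffinose, seeded at OD600 0.02 in galactose medium with compound for 24 hr at 30 deg C. Growth read by BacTiter-Glo luminescence, so rescue of toxicity appears as activation.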
# Potency means the concentration at half of the fitted maximal effect.
Structure (SMILES),growth rescue (activation),Potency
COc1ccc(C)cc1NC(=O)CNc1ccc(C(C)=O)cc1,inactive: -6.54%,–
CCCn1c(=S)[nH]c2ccccc2c1=O,inactive: 5.16%,–
CC(NC(=O)COc1ccccc1)C(c1ccccc1)N1CCN(C)CC1 (stereo not given),inactive: 2.95%,–
CN(C(=O)COC(=O)c1ccc2c(c1)OCO2)C1CCCCC1,inactive: -8.94%,–
O=C(CN1C(=O)NC2(CCCCCC2)C1=O)NCc1ccc(Cl)cc1,inactive: 23.1%,–
COc1ccccc1N(CC(=O)Nc1ccc(C)cc1Cl)S(=O)(=O)c1cccs1,inactive: 3.97%,–
COc1ccc(-c2nnc(NC(=O)CSc3ccc(C)cc3)s2)cc1OC,inactive: 3.12%,–
Cc1[nH]ccc(=O)c1OCc1c(F)cccc1Cl,inactive: 0.587%,–
CC1(C(=O)Nc2cccc3c2CCCC3)CCN1C(=O)CCC1CCCC1 (stereo not given),inactive: 27.7%,–
NS(=O)(=O)c1ccc(CCNC(=O)C2CCN(C(=O)Nc3ccccc3)CC2)cc1,inactive: -44.7%,–
O=C(C1CCCO1)N1CCN(C(=S)Nc2cc(F)cc(F)c2)CC1 (stereo not given),inactive: 12.1%,–
CCCn1c(NCc2ccccc2NS(=O)(=O)c2ccc(C)cc2)nc2ccccc21,inactive: -13%,–
CCOc1ccccc1OC(=O)c1cc2ccccc2oc1=O,inactive: 17%,–
CCCC(=O)N/C(N)=N/c1nc(C)c2cc(C)ccc2n1,inactive: -5.2%,–
CNC(=O)NC(=S)NC(=O)c1cccc(Cl)c1,inactive: -9.58%,–
CCNC(=O)C1(C)CCN(Cc2cccc(C(F)(F)F)c2)C1 (stereo not given),inactive: 11%,–
O=[N+]([O-])c1ccccc1OCCOCCOc1cccc2cccnc12,inactive: 12.7%,–
COc1ccc(/C=C(\NC(=O)c2ccccc2)C(=O)NCCN2CCOCC2)cc1OC,inactive: -7.23%,–
Cc1ccc(OC2CCN(C(=O)C3CCC(=O)N(C4CC4)C3)CC2)cc1 (stereo not given),inactive: 21.8%,–
Cc1cc(C)cc(Cn2c3ccc(NC(=O)NCc4ccccc4)cc3c(=O)n2C)c1,inactive: 8.56%,–
O=C(N/N=C/C=C/c1ccccc1)c1cccnc1,inactive: 4.41%,–
O=C(CSc1nc2ccc([N+](=O)[O-])cc2[nH]1)NC1CCCC1,inactive: 20.2%,–

Structure (SMILES),growth rescue (activation),Potency
Cc1cc(C)cc(NC(=O)Cn2c(=O)oc3cc(S(=O)(=O)N4CCCC4)ccc32)c1,inactive: -2.13%,–
COc1cccc(/C=N/NC(=O)C(=O)N/N=C/c2cccc(OC)c2O)c1O,inactive: -8.7%,–
CCCNC(=O)/C=C/c1ccc(S(=O)(=O)Nc2ccccc2OC)cc1,inactive: 4.49%,–
COc1ccc(-c2csc(N3C(=O)CNC3=S)n2)cc1,inactive: -21.3%,–
CCCNC(=O)NC(=O)CSc1nnc(-c2c[nH]c3ccccc23)o1,inactive: 9.88%,–
CN(O)/C=C1\C(=O)Nc2ccccc21,inactive: 7.94%,–
Cn1c(N)c(C(=O)COC(=O)c2ccc3ccccc3c2)c(=O)n(C)c1=O,inactive: 10.6%,–
Nc1nc(Cl)nc(N(c2ccccc2)c2ccccc2)n1,inactive: 2.96%,–
CC1(C(=O)Nc2ccccc2)CCN1C(=O)C1(c2ccc(Cl)cc2)CC1 (stereo not given),inactive: 19.1%,–
COc1cc(-c2coc3c(C(=O)NCc4ccncc4)cccc23)ccc1O,inactive: -5.43%,–
O=C(N/C(=C\c1ccccc1)C(=O)N1CCCCC1)c1ccco1,inactive: 1.15%,–
O=S(=O)(Nc1cccc(S(=O)(=O)N2CCCC2)c1)c1cccs1,inactive: 14.6%,–
CC(C)c1cccc(OCCCCN(C)C)c1,inactive: -9.14%,–
CCc1nn(CCCC(=O)NCc2ccccc2Br)c(=O)c2cc3occc3n12,inactive: -7.01%,–
COc1ccc(NC(=O)CCNS(=O)(=O)c2cccc3nonc23)cc1,inactive: 6.36%,–
O=C(NC(=S)NNC(=O)c1ccccc1O)c1cccs1,inactive: -52.1%,–
Cc1cc(S(=O)(=O)N2CCOCC2)ccc1OCC(=O)Nc1ccc(Br)cc1F,inactive: 9.35%,–
COc1ccccc1CCNC(=O)Nc1cccc([N+](=O)[O-])c1,inactive: 3.85%,–
CCCCN(S(=O)(=O)c1ccccc1)S(=O)(=O)c1ccccc1,inactive: 13.1%,–
COc1ccc(OC)c(NC(=O)c2cccc(N3C(=O)C4C5CCC(C5)C4C3=O)c2)c1 (stereo not given),inactive: -8.64%,–
O=[N+]([O-])c1cccc(S(=O)(=O)NCCCN2CCOCC2)c1,inactive: 16.1%,–
CCN(CC)S(=O)(=O)c1ccc(C(=O)Nc2nnc(NC(=S)Nc3ccccc3)s2)cc1,inactive: 14.6%,–

Structure (SMILES),growth rescue (activation),Potency
CCN=C1S/C(=C/c2ccc(-c3ccc(Cl)cc3C(=O)O)o2)C(=O)N1CC,inactive: 7.04%,–
COCCn1c(C)nnc1SCC(=O)NNC(=O)c1ccc(Br)cc1,inactive: -5.88%,–
CCn1c(C(=O)NCc2cccc(Br)c2)cc2oc3ccccc3c21,inactive: 11.3%,–
COC(=O)c1ccc(COC(=O)c2cnc(Cl)c(Cl)c2)cc1,inactive: 0.254%,–
CCCCn1c(N)c(N(CCC(C)C)C(=O)COC(=O)c2cccnc2SC)c(=O)[nH]c1=O,inactive: 0.0527%,–
Cc1ccc(-n2nnnc2SCC#N)cc1,inactive: 9.67%,–
Cc1cc(=O)oc2cc(OCC(O)CN3CCc4ccccc4C3)ccc12 (stereo not given),inactive: -32.7%,–
Cc1ccc2nc(N3C(=O)C(O)=C(C(=O)c4ccco4)C3c3ccc(C)o3)sc2c1 (stereo not given),inactive: -22.4%,–
O=C(Nc1ccc(F)cc1)C(c1ccccc1)N1CCN(S(=O)(=O)c2ccc3ccccc3c2)CC1 (stereo not given),inactive: 5.26%,–
O=C(COC(=O)CSc1ccc2ccccc2c1Br)NC1CC1,–,active: 22.4 µM
O=C(NCCCNC(=O)c1ccco1)c1cccc(F)c1,inactive: 9.58%,–
COc1ccccc1CNC(=O)COc1cccnc1[N+](=O)[O-],inactive: 5.01%,–
O=C(NC(c1ccccc1)c1cnccn1)C1CCN(CCCOc2ccccc2)CC1 (stereo not given),inactive: 7.95%,–
CN1CCN(c2nc(-c3ccccc3O)nc3ccccc23)CC1,inactive: 9.17%,–
COc1ccc(OC(F)(F)F)cc1CC1(C)C(=O)Nc2ccc(S(=O)(=O)NC3CCCCC3)cc21 (stereo not given),inactive: 6.76%,–
Fc1ccccc1N=C1Nc2cccc3cccc1c23,inactive: 5.3%,–
CCCc1cc(=O)[nH]c(SCC(=O)Nc2ccc(N3CCCCC3)cc2)n1,inactive: -5.36%,–
Brc1ccc(OCCCN2CCOCC2)cc1,inactive: 7.48%,–
CC(C)c1ccc(Nc2ncc3c(n2)CCN(C(=O)NC2CCCCC2)C3)cc1,inactive: 25.6%,–
Cc1ccc(CN(C)C(=O)c2cc(Br)c(Br)s2)o1,inactive: 11.3%,–
O=C(CC(Nc1ccccc1)C(=O)O)c1ccccc1 (stereo not given),inactive: 30%,–
CCCS(=O)(=O)Nc1c(C(=O)O)[nH]c2ccc(OC)cc12,inactive: 1.05%,–

Structure (SMILES),growth rescue (activation),Potency
Cn1c(SCC(=O)N2c3ccccc3CCc3ccccc32)nnc1-c1ccc(O)cc1,inactive: -24.2%,–
N#CCCn1cc(C(=O)Nc2ccc(C(=O)O)cc2)c(-c2ccc([N+](=O)[O-])cc2)n1,inactive: -10.9%,–
COc1ccc(C2N(c3ccc(C)cc3)CCN2c2ccc(C)cc2)cc1O,inactive: 0.708%,–
O=C(Nc1ccc(S(=O)(=O)NCC2CCCO2)cc1)c1cccc(F)c1 (stereo not given),inactive: 19.6%,–
O=C(NC1CCSC1=O)C1CCCCC1 (stereo not given),inactive: 17.2%,–
CC(C)COP(=O)(OCC(C)C)C(Nc1ccccc1)c1ccc(F)cc1 (stereo not given),inactive: 9.43%,–
Cc1ccc([N+](=O)[O-])cc1N=C1C(=O)Nc2ccccc21,inactive: -16.6%,–
CC(O)CNCc1ccc(Cl)cc1Cl (stereo not given),inactive: -5.86%,–
Cc1cc(C)c(NC(=O)Cn2nc(-c3ccccc3)nc2-c2ccccc2)c(C)c1,inactive: 4.44%,–
CC(C)c1ccc(/C=C(\c2nc3ccccc3[nH]2)S(=O)(=O)c2ccccc2)cc1,inactive: 25.9%,–
CCCNC(=O)N1CCN(Cc2ccco2)CC1,inactive: -5.76%,–
Cc1cccc(OC(C)C(=O)Nc2ccc3c(c2)OCCO3)c1 (stereo not given),inactive: -3.03%,–
O=C(Nc1cc(Oc2ccc(Cl)cc2)cc([N+](=O)[O-])c1)c1ccco1,inactive: 14.4%,–
CCC(C)NC(=O)c1cc2c(=O)[nH]c3ccc(C)cc3c2s1 (stereo not given),inactive: -9.06%,–
COC(=O)CCC(=O)Nc1cccc([N+](=O)[O-])c1,inactive: 10.9%,–
COc1cccc(-n2cc(CN(C)Cc3nc(Cc4ccccc4)no3)cn2)c1,inactive: -5.88%,–
O=C(NC1CCCC1)C(c1ccccn1)N(C(=O)c1csnn1)c1ccccc1F (stereo not given),inactive: 18.8%,–
COc1ccc(-c2ccc(C(=O)NCC3CCOCC3)c3occc23)c(C)c1,inactive: 14.9%,–
CCN(CC)C(=O)C(C(=O)c1cccc([N+](=O)[O-])c1)n1cc(Cl)ccc1=O (stereo not given),inactive: -6.83%,–
CC(=O)Nc1ccc(NC(=O)c2ccc(NS(=O)(=O)c3cccc4cccnc34)cc2)cc1,inactive: 10.1%,–
COc1ccc(C(=O)n2cc(C(=O)c3cc(C)ccc3O)cn2)cc1,inactive: 1.09%,–
Cc1ccc(N2CC(C(=O)Nc3ccc(S(=O)(=O)NCC4CCCO4)cc3)CC2=O)cc1C (stereo not given),inactive: 23.6%,–

Structure (SMILES),growth rescue (activation),Potency
O=C(O)C1CSC(CCc2ccccc2)N1 (stereo not given),inactive: 24.7%,–
CC1CCCCN1Cc1c(C#N)c2ccccc2n1C (stereo not given),inactive: 0.149%,–
CC1(C(=O)NS(=O)(=O)c2cccc(Cl)c2)CCN1C(=O)Cc1cc(F)ccc1F (stereo not given),inactive: 5.04%,–
COc1cccc(NC(=O)C2(C)CCN2C(=O)C2CCCCC2)c1 (stereo not given),inactive: 30%,–
COc1cc(/C=C/c2cc(C(F)(F)F)[nH]c(=O)n2)cc(OC)c1OC,inactive: -20.9%,–
CCOc1ccc(NC(=O)Nc2nnc(CC(=O)NCc3ccccc3)s2)cc1,inactive: -2.51%,–
Cn1nnnc1SCCCNCc1cccc(OCc2ccc(Cl)cc2)c1,inactive: 30%,–
CCNC(=O)C1CCCN(C(=O)c2ccc(OC(F)F)cc2)CC1 (stereo not given),inactive: -3.53%,–
O=C(CN(Cc1ccccc1)C(=O)CNS(=O)(=O)c1ccccc1)NCC1CCCO1 (stereo not given),inactive: 14.9%,–
CCC(c1nnnn1Cc1ccc(F)cc1)N1CCN(C)CC1 (stereo not given),inactive: 1.4%,–
CCN(CC)CCNC(=O)c1cc(Sc2nnc(C)s2)nc2ccccc12,inactive: 11.3%,–
Cc1cc(=O)[nH]c(SCc2cn3ccccc3n2)n1,inactive: -14.9%,–
COc1ccc(-c2cn(-c3ccccc3)c3[n+]2CCS3)cc1,inactive: -0.941%,–
CC1(C(=O)NS(=O)(=O)Cc2cccc(Cl)c2)CCN1C(=O)C1CCCCC1 (stereo not given),inactive: -7.94%,–
COc1ccccc1OCCn1cc(C(=O)c2cccs2)c2ccccc21,inactive: 17.8%,–
CC(NC(=O)Cn1cnnn1)c1cccc(C(F)(F)F)c1 (stereo not given),inactive: 9.73%,–
Cc1ccc(NC(=O)CN(C)C(=O)Cc2ccc(Cl)cc2Cl)cc1,inactive: 13%,–
COc1ccccc1NS(=O)(=O)c1cc(N)ccc1N1CCOCC1,inactive: 3.23%,–
OCC1(Cc2ccccc2C(F)(F)F)CCN(Cc2ccccc2)CC1,inactive: 9.28%,–
CCNc1nc(C23CC4CC(CC(C4)C2)C3)cs1,inactive: 1.98%,–
Nc1nc(NC(=O)CCC(=O)O)nn1-c1ccccc1,inactive: -7.26%,–
COc1ccc(CCCC(=O)Nc2ccc(F)cc2)cc1,inactive: 33%,–
